Some of the results follow.
What was measured:
HSkMC = human skeletal muscle cells; assay: cytotoxicity call (relative viability < 0.9); conditions: 10 µM
HepG2 = assay: cytotoxicity call (relative viability < 0.9); conditions: 10 µM
S. aureus RN4220 = assay: growth inhibition call (relative growth <= 0.2); conditions: 50 µM

Row | SMILES | cytotoxicity call (HSkMC) | cytotoxicity call (HepG2) | growth inhibition call (S. aureus RN4220)
1 | C[C@@H]1CCCCO[C@H](CN(C)S(=O)(=O)c2cccs2)[C@H](C)CN([C@@H](C)CO)C(=O)c2cc(NC(=O)Nc3cccc4ccccc34)ccc2O1 | inactive | inactive | inactive
2 | C[C@@H]1CCCCO[C@H](CN(C)C(=O)c2ccccc2)[C@H](C)CN([C@H](C)CO)C(=O)c2cc(NC(=O)c3ccccc3)ccc2O1 | inactive | inactive | inactive
3 | COc1ccc(S(=O)(=O)N(C)C[C@H]2Oc3cc(C#CC4CCCC4)ccc3S(=O)(=O)N([C@H](C)CO)C[C@H]2C)cc1 | inactive | inactive | inactive
4 | C[C@H](CO)N1C[C@H](C)[C@H](CN(C)C(=O)Cc2ccccn2)Oc2cc(-c3ccc(C(=O)N(C)C)cc3)ccc2S1(=O)=O | inactive | inactive | inactive
5 | C[C@@H]1CN([C@H](C)CO)S(=O)(=O)c2ccc(C#Cc3ccccc3)cc2O[C@H]1CN(C)C(=O)c1ccccn1 | inactive | inactive | inactive
6 | C=C(NC(=O)C(=C)NC(=O)c1csc(C2=NC3c4csc(n4)C4NC(=O)c5csc(n5)C(C(C)(O)C(C)O)NC(=O)C5CSC(=N5)C(=CC)NC(=O)C(C(C)O)NC(=O)c5csc(n5)C3(CC2)NC(=O)C(C)NC(=O)C(=C)NC(=O)C(C)NC(=O)C(C(C)CC)NC2C=Cc3c(C(C)O)cc(nc3C2O)C(=O)OC4C)n1)C(N)=O (stereo unspecified) | inactive | active | active
7 | C[C@H](CO)N1C[C@H](C)[C@H](CN(C)CC2CCCCC2)OCCCC[C@H](C)Oc2ccc(NC(=O)Nc3ccc(C(F)(F)F)cc3)cc2C1=O | active | active | inactive
8 | CC(C)NC(=O)Nc1cccc2c1O[C@H](CN(C)Cc1ccc(-c3ccccc3)cc1)[C@H](C)CN([C@H](C)CO)C2=O | inactive | inactive | inactive
9 | C[C@H](CO)N1C[C@H](C)[C@@H](CN(C)CC2CC2)Oc2ccc(NS(=O)(=O)c3cccs3)cc2C1=O | inactive | inactive | inactive
10 | C[C@@H]1CCCCO[C@@H](CN(C)C(=O)NC2CCCCC2)[C@@H](C)CN([C@@H](C)CO)C(=O)c2cc(NS(=O)(=O)c3ccc(Cl)cc3)ccc2O1 | inactive | inactive | inactive
11 | C[C@H](CO)N1C[C@H](C)[C@H](CN(C)C(=O)NC2CCCCC2)Oc2c(NC(=O)Nc3cccc4ccccc34)cccc2C1=O | active | inactive | inactive
12 | O=C(C[C@@H]1C[C@@H]2c3cc(NS(=O)(=O)c4ccc(F)cc4)ccc3O[C@@H]2[C@@H](CO)O1)NCc1cccc(F)c1 | inactive | inactive | inactive
13 | C[C@@H]1CN([C@H](C)CO)C(=O)c2cc(Br)cnc2O[C@H]1CN(C)S(=O)(=O)c1ccccc1 | inactive | inactive | inactive
14 | C=CCC[C@@H](Cc1ccc(F)cc1)C(=O)OC[C@@H](NC(=O)[C@@H](CC=C)CC(=O)N(CCO)Cc1ccccc1)c1ccccc1 | active | active | inactive
15 | Cc1ccc(S(=O)(=O)N(C)C[C@@H]2Oc3ccc(NC(=O)c4ccncc4)cc3CC(=O)N([C@H](C)CO)C[C@@H]2C)cc1 | inactive | inactive | inactive
16 | COc1ccc(CN(C)C[C@@H]2Oc3ccc(NC(=O)C4CC4)cc3CC(=O)N([C@H](C)CO)C[C@@H]2C)cc1 | inactive | inactive | inactive
17 | C[C@H](CO)N1C[C@H](C)[C@@H](CN(C)C(=O)Nc2cccc3ccccc23)OCCCC[C@H](C)Oc2ccc(NC(=O)c3ccncc3)cc2C1=O | inactive | inactive | inactive
18 | COc1cccc(NC(=O)N[C@H]2CC[C@H](CC(=O)N3CCOCC3)O[C@@H]2CO)c1 | inactive | inactive | inactive
19 | C[C@@H]1CN([C@@H](C)CO)C(=O)c2cc(NC(=O)CCCCCC(=O)Nc3ccccc3N)ccc2O[C@H]1CN(C)S(C)(=O)=O | inactive | inactive | inactive
20 | COc1ccc(S(=O)(=O)Nc2ccc3c(c2)CC(=O)N([C@H](C)CO)C[C@H](C)[C@@H](CN(C)S(=O)(=O)c2cccs2)O3)cc1 | inactive | inactive | inactive
21 | C[C@@H]1CN([C@@H](C)CO)C(=O)c2cc(NC(=O)Nc3cccc4ccccc34)ccc2O[C@@H](C)CCCCO[C@H]1CN(C)C(=O)Nc1cccc2ccccc12 | inactive | inactive | inactive
22 | C[C@@H]1CCCCO[C@@H](CN(C)C(=O)Nc2cccc3ccccc23)[C@H](C)CN([C@H](C)CO)C(=O)c2cc(NS(=O)(=O)c3cn(C)cn3)ccc2O1 | inactive | inactive | inactive

From the antibiotic and cytotoxicity screens of Wong et al. (2023)
